Data published in PubChem BioAssay AID1460 (National Center for Advancing Translational Sciences (NCATS), 2008).
Among all 270,000 compounds or so, about 5,800 (2.1%) were called active. The inconclusive results got no clear call from the source; some entries with a clear call stand among them for comparison. Calls come from the whole dose curve; as a rule, active = well fitted inhibition curve with a large enough effect; inconclusive = small, poorly fitted or top-dose-only effect; inactive = flat fitted curve, though single readings scatter. Potencies of inconclusive entries are doubtful fits and often do not repeat.
% is set by controls: 0 for no effect and ±100 for the full control effect; potency is the fitted concentration of half-maximal effect; tags give direction and shape of the fitted curve.
Note: nearly all actives have a fitted effect of over 55% in size.

Each compound was assayed against Microtubule-associated protein tau (Homo sapiens) (UniProt P10636) (assay: qHTS for Inhibitors of Tau Fibril Formation, Thioflavin T Binding). Details: recombinant tau K18 P301L, heparin-induced fibrillization, ThT fluorescence; series mostly up to 57.4 µM; activity, negative = inhibition: at the top concentration.
Sequence of UniProt P10636 (P10636 whole entry, looked up): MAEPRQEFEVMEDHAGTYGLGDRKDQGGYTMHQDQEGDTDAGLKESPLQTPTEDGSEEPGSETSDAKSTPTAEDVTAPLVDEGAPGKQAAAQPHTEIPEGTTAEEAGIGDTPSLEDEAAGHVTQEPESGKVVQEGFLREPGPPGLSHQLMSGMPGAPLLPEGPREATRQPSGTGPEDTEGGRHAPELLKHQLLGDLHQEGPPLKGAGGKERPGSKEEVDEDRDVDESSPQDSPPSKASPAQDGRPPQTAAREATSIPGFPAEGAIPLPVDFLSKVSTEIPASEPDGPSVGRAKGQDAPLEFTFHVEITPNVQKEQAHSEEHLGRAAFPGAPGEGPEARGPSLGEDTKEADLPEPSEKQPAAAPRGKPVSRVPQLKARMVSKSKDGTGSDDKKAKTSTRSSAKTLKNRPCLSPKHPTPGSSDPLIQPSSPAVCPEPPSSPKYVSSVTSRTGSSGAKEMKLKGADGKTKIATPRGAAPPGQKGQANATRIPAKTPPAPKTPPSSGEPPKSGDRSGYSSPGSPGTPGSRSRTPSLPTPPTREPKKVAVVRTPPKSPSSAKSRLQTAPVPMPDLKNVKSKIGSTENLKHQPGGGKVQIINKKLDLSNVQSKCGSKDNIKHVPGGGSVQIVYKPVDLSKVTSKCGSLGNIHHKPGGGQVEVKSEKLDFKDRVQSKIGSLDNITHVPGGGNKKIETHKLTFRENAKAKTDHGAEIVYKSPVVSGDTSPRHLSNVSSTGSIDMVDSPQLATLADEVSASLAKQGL
How it was run: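 Fibril formation assay: tau K18 P301L at 15 uM with trace Alexa 594 label, heparin inducer 20 uM, pH 7 sodium acetate buffer, 37 C for 6 hr; endpoint ThT signal.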
In the case of c1ccc(-c2c(-c3ccccc3)n(Cc3ccco3)c3ncnc(NCCCn4ccnc4)c23)cc1, the Potency is reported as inconclusive: 28.2 µM [inhibitor, single point].
For CC(Sc1nc(O)c(-c2ccccc2)c(=O)[nH]1)C(=O)Nc1ccc(Cl)cc1 (stereo unspecified), the Potency was inconclusive: 14.1 µM [inhibitor, partial curve].
With N#Cc1c(NC(=O)c2ccc(N3CCOCC3)c([N+](=O)[O-])c2)sc2c1CCCC2 the Potency was inconclusive: 3.16 µM [inhibitor, partial curve].
For Cc1ccc(CNC(=O)CCc2ccc(S(=O)(=O)NC3CCCCC3)cc2)cc1, the “activity, negative = inhibition” value was inactive: 1.57%.
With NC(=O)C1CCN(c2ccc(C(F)(F)F)cc2[N+](=O)[O-])CC1 the Potency was inconclusive: 44.7 µM [inhibitor, single point].
In the case of O=C(OCC#CCSc1nc2ccccc2s1)c1ccco1, the Potency is reported as inconclusive: 1.12 µM [inhibitor, full curve].
For CCOc1ccc(C(=O)NCCn2cc(SCC(=O)Nc3cc(C)on3)c3ccccc32)cc1, the Potency was inconclusive: 3.55 µM [inhibitor, full curve].
For CC(=O)O[C@@H]1CC2C(C)(C)C(=O)C=C[C@]2(C)C2CC[C@]3(C)C(=CC[C@H]3C3CO[C@@H](C(C)(C)O)[C@H](O)C3)[C@@]21C (stereo partly specified), the Potency was inconclusive: 10 µM [inhibitor, partial curve].
For CCOC(=O)c1cc(-c2ccc(C)cc2)n(CCC(=O)Nc2cc(Cl)ccc2C)c1C, the Potency was inconclusive: 17.8 µM [activator, partial curve].
In the case of CC(=O)Oc1cc2c3c(c1)/C(=C1/SC(=S)NC1=O)C(=O)N3C(C)(C)C=C2C, the Potency is reported as active: 7.08 µM.
With CCCCc1ccc(-c2ccc(Br)cc2)nc1 the “activity, negative = inhibition” value was inactive: -8.22%.
With NC(=S)c1ccc(C(N)=S)o1 the Potency was inconclusive: 11.2 µM [inhibitor, partial curve].
In the case of CCOC(=O)/C=C/S(=O)(=O)c1ccc(NC(C)=O)cc1, the Potency is reported as inconclusive: 2.82 µM [inhibitor, full curve].
O=C(CC1(O)C(=O)c2ccccc2C1=O)c1ccccc1 was tested, and the Potency was inconclusive: 15.8 µM [inhibitor, partial curve].
In the case of CCc1nc2ccc(C(=O)NCCc3ccc(OC)cc3OC)cc2nc1CC, the Potency is reported as inconclusive: 11.2 µM [inhibitor, partial curve].
With O=C(Nc1ccc(N2CCCC2)c(Cl)c1)c1cccs1 the Potency was inconclusive: 5.62 µM [inhibitor, partial curve].
Cc1ccccc1Nc1nc(N)nc(CSc2nc3ccccc3c(=O)n2C)n1 was tested, and the Potency was inconclusive: 31.6 µM [inhibitor, partial curve].
With CCC(C(=O)NCc1ccc2c(c1)CCN2C(=O)c1ccc(F)cc1)c1ccccc1 (stereo unspecified) the “activity, negative = inhibition” value was inactive: -2.1%.
With COC(=O)c1cc(Cc2ccc(N)c(C(=O)OC)c2)ccc1N the Potency was inconclusive: 31.6 µM [inhibitor, single point].
With CCC(CO)n1c(SCc2cc(=O)oc3cc(C)ccc23)nc2ccccc2c1=O (stereo unspecified) the Potency was inconclusive: 35.5 µM [inhibitor, partial curve].
In the case of O=C(NC1CCCCC1)C(=S)NCc1ccccc1, the “activity, negative = inhibition” value is reported as inactive: -10.6%.
O=C(NCCC1=CCCCC1)c1ccc(Cl)c([N+](=O)[O-])c1 was tested, and the Potency was inconclusive: 20 µM [inhibitor, single point].
For Cc1ccc(S(=O)(=O)Oc2ccc(/C=N/N=C3/NC(=O)C(CC(=O)O)S3)cc2)cc1 (stereo unspecified), the “activity, negative = inhibition” value was inactive: -15.1%.
For O=C(Cn1c(=O)n(Cc2ccc(C(=O)NCc3ccc4c(c3)OCO4)cc2)c(=O)c2ccccc21)Nc1cccc(Cl)c1, the “activity, negative = inhibition” value was inactive: 5.22%.
For COC(=O)/C=C1\SC(=Nc2ccc(Cl)c(Cl)c2)NC1=O, the Potency was inconclusive: 14.1 µM [inhibitor, partial curve].
For Cc1ccc2c(c1)sc1nc(-c3cc4cc(Cl)ccc4oc3=O)cn12, the Potency was inconclusive: 28.2 µM [inhibitor, single point].
With O=c1cc(-c2ccc(O)c(O)c2)oc2cccc(O)c12 the Potency was inconclusive: 8.91 µM [inhibitor, partial curve].
For CCCOc1ccc(NC(=O)CC2Nc3ccccc3NC2=O)cc1 (stereo unspecified), the Potency was inconclusive: 15.8 µM [inhibitor, partial curve].
For CCOc1cc(OCC)cc(C(=O)Nc2cccnc2)c1, the “activity, negative = inhibition” value was inactive: -2.13%.
With Cn1c(SCC(=O)Nc2cccc(C(=O)O)c2)nnc1-c1cc2cc(Br)ccc2o1 the Potency was inconclusive: 0.316 µM [inhibitor, full curve].
For O=C(O)CC/C(=C\c1ccc(Cl)c([N+](=O)[O-])c1)c1nc2ccccc2s1, the “activity, negative = inhibition” value was inactive: 11.5%.
With COc1ccc(NC(=O)c2[nH]c(C)c(C(C)=O)c2C)cc1 the Potency was inconclusive: 12.6 µM [inhibitor, partial curve].
CCOc1ccc(NC(=O)Cc2cccc3ccccc23)c([N+](=O)[O-])c1 was tested, and the “activity, negative = inhibition” value was inactive: -11.4%.
In the case of Cc1cc(C)c2c(=O)n(CC(=O)Nc3cccc(F)c3)sc2n1, the Potency is reported as active: 14.1 µM.
With CN(C(=O)CSc1nc2ccccc2[nH]1)c1ccc(F)cc1 the “activity, negative = inhibition” value was inactive: -6.46%.
In the case of O=C(COc1ccc(Nc2ccccc2)cc1)OCC(=O)N1CCCCC1, the Potency is reported as inconclusive: 5.62 µM [inhibitor, partial curve].
